The other results are listed elsewhere or left out. Cut-off read from the data, not from the text of the source: active = 3.2 or more and inactive = the rest. The signal is at background level for most entries.
What was measured:
Experiment in all cases: enrichment score (SH2-bound / input frequency) (ratio); bacterial display of known human phosphotyrosine sites (pTyr-Var adds point mutants) read by sequencing; higher = stronger binding; tyrosines were phosphorylated by kinases first
Settings in all cases: peptide library: pTyr-Var
SHP2 C-SH2 domain E139D = biological target: SHP2 C-SH2 domain E139D
[1] = biological target: SHP2 C-SH2 domain wild-type
SHP2 N-SH2 domain L43F = biological target: SHP2 N-SH2 domain L43F
SHP2 N-SH2 domain T42A = biological target: SHP2 N-SH2 domain T42A
SHP2 N-SH2 domain T52S = biological target: SHP2 N-SH2 domain T52S
[2] = biological target: SHP2 N-SH2 domain wild-type

Measured: enrichment score
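Note: displayed peptides selected on beads carrying the immobilized SH2 domain, with library peptides lacking any tyrosine serving as negative controls.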

B1: KCNQ1_Y184_G179S (peptide)
chain: SCRSKYVGLWG
inactive: SHP2 C-SH2 domain E139D 0.784 | [1] 0.74 | SHP2 N-SH2 domain L43F 0.741 | SHP2 N-SH2 domain T42A 1.25 | SHP2 N-SH2 domain T52S 0.619 | [2] 0.763

B2: KCNQ1_Y184_Y184S (peptide)
chain: GCRSKSVGLWG
inactive: SHP2 C-SH2 domain E139D 0.712 | [1] 0.698 | SHP2 N-SH2 domain L43F 0.776 | SHP2 N-SH2 domain T42A 0.492 | SHP2 N-SH2 domain T52S 0.632 | [2] 0.843

B3: KCNQ1_Y267_I268S (peptide)
chain: LITTLYSGFLG
inactive: [1] 2.85 | SHP2 N-SH2 domain T52S 2.22 | [2] 2.95
active: SHP2 C-SH2 domain E139D 3.39 | SHP2 N-SH2 domain L43F 3.42 | SHP2 N-SH2 domain T42A 3.33

B4: KCNH2_Y388_D383N (peptide)
chain: NVLPEYKLQAP
inactive: SHP2 C-SH2 domain E139D 1 | [1] 0.756 | SHP2 N-SH2 domain L43F 0.864 | SHP2 N-SH2 domain T42A 0.756 | SHP2 N-SH2 domain T52S 0.981 | [2] 0.803

B5: KCNH2_Y611_D609H (peptide)
chain: SIKHKYVTALY
inactive: SHP2 C-SH2 domain E139D 0.747 | [1] 0.781 | SHP2 N-SH2 domain L43F 0.757 | SHP2 N-SH2 domain T42A 0.787 | SHP2 N-SH2 domain T52S 0.721 | [2] 0.753

B6: KCNH2_Y611_L615F (peptide)
chain: SIKDKYVTAFY
inactive: SHP2 C-SH2 domain E139D 0.851 | [1] 0.797 | SHP2 N-SH2 domain L43F 1.18 | SHP2 N-SH2 domain T42A 0.807 | SHP2 N-SH2 domain T52S 1.33 | [2] 0.818

B7: KCNH2_Y611_L615V_YF (peptide)
chain: SIKDKYVTAVF
active: SHP2 N-SH2 domain L43F 3.33 | SHP2 N-SH2 domain T52S 4.16
inactive: SHP2 C-SH2 domain E139D 1.23 | [1] 1.33 | SHP2 N-SH2 domain T42A 1.76 | [2] 1.62

B8: KCNH2_Y611_D609G_YF (peptide)
chain: SIKGKYVTALF
inactive: SHP2 C-SH2 domain E139D 0.799 | [1] 0.819 | SHP2 N-SH2 domain L43F 2.08 | SHP2 N-SH2 domain T42A 1.32 | SHP2 N-SH2 domain T52S 2.71 | [2] 1.37

B9: KCNQ1_Y184 (peptide)
chain: GCRSKYVGLWG
inactive: SHP2 C-SH2 domain E139D 0.719 | [1] 0.748 | SHP2 N-SH2 domain L43F 0.593 | SHP2 N-SH2 domain T42A 0.628 | SHP2 N-SH2 domain T52S 0.685 | [2] 0.654

B10: KCNH2_Y611 (peptide)
chain: SIKDKYVTALY
inactive: SHP2 C-SH2 domain E139D 1.01 | [1] 0.847 | SHP2 N-SH2 domain L43F 0.71 | SHP2 N-SH2 domain T42A 0.774 | SHP2 N-SH2 domain T52S 0.73 | [2] 0.759

B11: KCNH2_Y827_V822M (peptide)
chain: MRALTYCDLHK
inactive: SHP2 C-SH2 domain E139D 0.937 | [1] 1.27 | SHP2 N-SH2 domain L43F 1.16 | SHP2 N-SH2 domain T42A 1.15 | SHP2 N-SH2 domain T52S 0.781 | [2] 1.21

B12: KCNH2_Y827 (peptide)
chain: VRALTYCDLHK
inactive: SHP2 C-SH2 domain E139D 0.734 | [1] 1.01 | SHP2 N-SH2 domain L43F 0.795 | SHP2 N-SH2 domain T42A 1.07 | SHP2 N-SH2 domain T52S 0.879 | [2] 1.09

B13: KCNJ11_Y26_E23K (peptide)
chain: PAKPRYRARQR
inactive: SHP2 C-SH2 domain E139D 0.29 | [1] 0.223 | SHP2 N-SH2 domain L43F 0.201 | SHP2 N-SH2 domain T42A 0.251 | SHP2 N-SH2 domain T52S 0.269 | [2] 0.287

B14: KCNQ1_Y267_G269D (peptide)
chain: LITTLYIDFLG
inactive: SHP2 C-SH2 domain E139D 2.04 | [1] 2.53 | SHP2 N-SH2 domain L43F 1.94 | SHP2 N-SH2 domain T42A 1.79 | SHP2 N-SH2 domain T52S 1.73 | [2] 2.53

B15: KCNH2_Y611_T613M (peptide)
chain: SIKDKYVMALY
inactive: SHP2 C-SH2 domain E139D 1.1 | [1] 0.727 | SHP2 N-SH2 domain L43F 0.72 | SHP2 N-SH2 domain T42A 0.891 | SHP2 N-SH2 domain T52S 0.977 | [2] 1.23

B16: KCNH2_Y388 (peptide)
chain: DVLPEYKLQAP
inactive: SHP2 C-SH2 domain E139D 0.592 | [1] 0.632 | SHP2 N-SH2 domain L43F 0.684 | SHP2 N-SH2 domain T42A 0.515 | SHP2 N-SH2 domain T52S 0.472 | [2] 0.747

B17: KCNH2_Y780_R784W (peptide)
chain: LLTALYFISWG
inactive: SHP2 C-SH2 domain E139D 2.59 | [1] 2.67 | SHP2 N-SH2 domain L43F 2.58 | SHP2 N-SH2 domain T42A 2.06 | SHP2 N-SH2 domain T52S 2.46 | [2] 2.79

B18: KCNH2_Y611_A614V (peptide)
chain: SIKDKYVTVLY
inactive: SHP2 C-SH2 domain E139D 0.921 | [1] 1.45 | SHP2 N-SH2 domain L43F 1.28 | SHP2 N-SH2 domain T42A 1.55 | SHP2 N-SH2 domain T52S 1.26 | [2] 1.09

B19: KCNH2_Y611_T613M_YF (peptide)
chain: SIKDKYVMALF
inactive: SHP2 C-SH2 domain E139D 0.969 | [1] 0.966 | SHP2 N-SH2 domain L43F 1.48 | SHP2 N-SH2 domain T42A 0.948 | SHP2 N-SH2 domain T52S 1.41 | [2] 1.12
